Measured values as given in the supplement of paper PMC10126150.
Values marked as one replicate rest on one cluster of the flow cell; about a third of the high ones do not repeat.

system: ATP; assay: switch fluorescence ratio, 500 uM ATP over buffer (Cy3 cluster intensity, sum of 5 cycles each) (fold (ratio)); higher = stronger signal-on switching upon ATP binding; sequences stand for … in TCGTCGGCAGCGTCAGATGTGTATAAGAGACAGTTTTTTTTTTTTTTTTTTTTTTTTT…TC; details: aptamer strand: ATP DNA aptamer (quencher-CACCTGGGGGAGTATTGCGGAGGAAGG + anchor), 100 nM annealed; ATP concentration: 500 uM; one replicate
In short: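 Clusters carrying Cy3-labelled switching strands on a modified Illumina MiSeq flow-cell were annealed to 100 nM quencher-labelled ATP aptamer and imaged in selection buffer. They were imaged again after 15 min with 500 uM ATP at 22 °C, over five buffer/ATP cycles with NaOH stripping and re-annealing in between. For each cluster, the fluorescence ratio is the summed Cy3 intensity of the target cycles divided by that of the buffer cycles, averaged per switch-domain sequence. Clusters outside 100-1000 RFU were left out.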
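Also: ATP exposure 15 min at 22 °C before imaging.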

Sequence | switch fluorescence ratio
TGATTCTCTA | 0.974
TGATTGATGT | 0.981
TGATTGATTC | 0.986
TGATTGCCGC | 1.02
TGATTTAACA | 1.02
TGATTTTGAT | 0.999
TGCAACGCCC | 1.05
TGCAACTGCG | 1.02
TGCAACTTGC | 1.07
TGCAAGATTT | 0.978
TGCAAGCTTT | 1.02
TGCAAGGGAC | 1.83
TGCAAGGGTC | 1.12
TGCAATTAC | 3.48
TGCAATTCAA | 1.05
TGCACAGGGG | 2.69
TGCACCATAT | 1.08
TGCACGAGTT | 1.01
TGCACGATCT | 1.28
TGCACTGGAG | 1.12
TGCACTTGGT | 1.02
TGCAGACGTG | 1.02
TGCAGCATGC | 1.19
TGCAGGAGTA | 0.931
TGCAGGATCA | 1.02
TGCAGGCTG | 1.03

Sequence | switch fluorescence ratio
TGCAGGGTAA | 1.1
TGCAGGGTCG | 0.984
TGCAGGTCGT | 0.994
TGCATAAAGG | 1.04
TGCATACCCG | 1.05
TGCATAGGTT | 0.95
TGCATAGTGC | 1.01
TGCATCCAAA | 1.03
TGCATCTGAC | 1.09
TGCATGGGAC | 1.03
TGCATTGGAT | 1.03
TGCCAAATGT | 0.977
TGCCAATTTT | 1.06
TGCCACCGGA | 0.977
TGCCACTCCA | 1.04
TGCCCACCCC | 1.25
TGCCCCCCAT | 1.01
TGCCCCGGAT | 0.999
TGCCCGCGCT | 0.971
TGCCCGGGTG | 3.85
TGCCGCTGGC | 1.1
TGCCGTTCTG | 0.989
TGCCTAGTCC | 1.01
TGCCTATCGA | 0.977
TGCCTGTAGG | 0.98
TGCCTTATCG | 1.02

Sequence | switch fluorescence ratio
TGCCTTGAGG | 1.01
TGCCTTGTCT | 1.04
TGCGAACCGG | 1.03
TGCGAACGGG | 0.999
TGCGACCGGC | 1.01
TGCGACCTGG | 0.952
TGCGAGACTA | 1.11
TGCGAGATGG | 0.954
TGCGAGGGAC | 1.01
TGCGATATAT | 0.987
TGCGATCACA | 1.04
TGCGATTCGC | 1.02
TGCGCCATAG | 1.48
TGCGCCTGTA | 1.13
TGCGCTACC | 1.17
TGCGCTATCG | 1.05
TGCGCTGTAA | 1.05
TGCGCTTAAG | 1.04
TGCGGAAGGA | 1.29
TGCGGAGGAG | 0.994
TGCGGGA | 1.05
TGCGGGCACA | 1
TGCGGGCACT | 1.01
TGCGGGGTGA | 0.958
TGCGGTAGGG | 1.03
